# Assay results as given in the supplement of paper PMC12217912.
# Some of the results follow. The full chains were built here from the parent and the listed change. Inactive controls read about 0.05.
# B1: TEV protease; numbered along this chain (parent)
# chain: MGESLFKGPRDYNPISSSICHLTNESDGHTTSLYGIGFGPFIITNKHLFRRNNGTLVVQSLHGVFKVKDTTTLQQHLVDGRDMIIIRMPKDFPPFPQKLKFREPQREERICLVTTNFQTKSMSSMVSDTSCTFPSGDGIFWKHWIQTKDGQCGSPLVSTRDGFIVGIHSASNFTNTNNYFTSVPKNFMELLTNQEAQQWVSGWRLNADSVLWGGHKVFMVKPEEPFQPVKEATQL
# Variants of: B1
# Assay: raw area under fraction-flipped curve 0-4 h after induction (AUC4h, not background-subtracted), DNA-recorder readout of cleavage of the substrate (dimensionless); higher = more cleavage of the substrate by the protease variant
# Details: temperature: 34 °C; time window: 0-4 h after rhamnose induction
# Procedure: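 In vivo DNA recorder in E. coli TOP10(DE3) ΔrhaA at 34 °C. Each TEVp single-site mutant (parent TEVp 0) is paired with a single-site variant of the 7-mer TEVs (canonical ENLYFQ|S). The substrate sits between flexible linkers in a Bxb1-sfGFP-TEVs-SsrA fusion, so cleavage stabilises Bxb1 and speeds flipping of a recombination array, read by NGS. The value is the raw area under the fraction-flipped curve over 0-4 h after rhamnose induction (AUC4h), with ≥20 reads per time point. It is not background-subtracted; inactive controls average about 0.047.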
# 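Also: Bxb1 expression induced with 0.2% (w/v) L-rhamnose at OD600 near 0.5, cultures sampled hourly, flipped fraction per protease–substrate barcode pair counted by paired-end Illumina sequencing.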
Variant,area with substrate ENAYFQS,area with substrate ENDYFQS,area with substrate ENEYFQS,area with substrate ENGYFQS,area with substrate ENKYFQS,area with substrate ENNYFQS,area with substrate ENPYFQS,area with substrate ENQYFQS,area with substrate ENSYFQS,area with substrate ENTYFQS,area with substrate ENVYFQS,area with substrate ENWYFQS,area with substrate ENCYFQS,area with substrate ENHYFQS,area with substrate ENRYFQS,area with substrate ENIYFQS,area with substrate ENFYFQS,area with substrate ENMYFQS,area with substrate ENYYFQS
N175V,0.111,0.0751,0.0671,0.0564,0.0659,0.0518,0.0551,0.0634,0.0551,0.0656,0.0538,0.064,,,,,,,
N175W,0.0779,,0.0909,,,0.0563,,,,,,,0.036,0.0524,0.0471,,,,
N177K,0.0734,,0.0664,0.0674,,,,,,,,0.0602,0.062,0.0792,,0.0405,,,
N178V,0.0573,0.0785,0.0646,,,0.0557,0.0865,0.0619,0.0539,0.0716,0.0625,,,0.0575,,,0.0461,0.0398,
Y179I,0.0572,0.0466,0.0597,,,,,0.0486,0.0576,,0.0406,,,0.0685,,0.0589,0.0596,,0.0858
Y179V,0.0503,0.0525,,,,,,0.0581,,,0.0568,,0.0322,0.0538,,0.0602,0.0544,,0.165
F180A,0.0639,0.0575,,0.0626,0.0195,,,0.0301,0.0656,0.0842,,,,,,0.0684,0.0578,,
F180D,0.0989,0.0578,0.0522,,,0.0389,0.0328,0.0477,0.0387,0.0479,,,,,,0.0674,,,0.0617
F180R,0.0456,0.0503,0.0656,,0.0498,,0.0567,0.0403,0.0612,0.0498,,,0.051,0.0503,,0.0521,0.0556,,0.0509
T181R,0.0517,,0.0494,0.0597,,0.0534,0.0495,0.0478,0.0538,0.0544,0.0429,0.0447,0.0482,,0.0432,0.0617,0.0447,0.0545,
T181S,0.0596,,0.0613,,,,,0.0653,,,,,0.062,0.0615,,,,0.0661,
S182G,0.0545,,0.0657,0.0415,,0.0638,,,0.0686,0.0569,,,,,,,,,
S182Q,0.0398,0.063,0.0485,0.0637,0.0592,0.0541,,0.0547,0.0632,0.0567,0.0574,,,0.0565,0.0317,0.0292,0.0539,0.0306,
S182T,0.0416,0.0687,0.0645,,,0.0531,,0.0572,0.0684,0.0705,,,0.0704,,,,0.0733,,0.0351
V183S,0.0767,0.0627,0.0535,,0.0604,,0.0683,0.0569,0.0553,0.0526,0.076,,,0.0622,,0.114,0.0608,,0.0509
P184D,0.0547,0.0389,0.0524,0.0643,,0.0653,,0.054,0.0511,,,,,0.0437,,0.044,,,

Variant,area with substrate ENAYFQS,area with substrate ENDYFQS,area with substrate ENEYFQS,area with substrate ENGYFQS,area with substrate ENKYFQS,area with substrate ENNYFQS,area with substrate ENPYFQS,area with substrate ENQYFQS,area with substrate ENSYFQS,area with substrate ENTYFQS,area with substrate ENVYFQS,area with substrate ENWYFQS,area with substrate ENCYFQS,area with substrate ENHYFQS,area with substrate ENRYFQS,area with substrate ENIYFQS,area with substrate ENFYFQS,area with substrate ENMYFQS,area with substrate ENYYFQS
P184T,0.054,0.0676,0.0559,0.068,,0.0681,0.051,0.0542,0.0582,0.0668,,,0.06,0.0557,,0.0878,0.0748,,
K185Q,0.0629,0.0766,0.0551,0.0704,0.0601,0.0633,0.06,0.0698,0.0589,0.0651,0.0773,,0.0648,0.0761,0.0667,0.095,,,
K185W,0.0516,0.0683,0.0703,0.0685,,0.0681,0.0478,0.0642,0.0519,0.064,0.0894,0.0363,0.0645,0.064,0.0564,0.0963,0.0561,0.0372,0.062
N186C,0.0848,0.0468,0.0739,0.0521,0.0747,0.0506,,0.0606,,,,,,,0.0774,0.125,0.0623,,
N186I,0.0543,,,,,0.0609,0.0578,0.0632,,0.045,,,0.0685,,,,,0.0804,
N186S,0.0612,,,0.0577,,0.0571,,0.0591,,0.0687,,,,0.0864,0.0425,0.116,,,
F187W,0.0927,,,0.0584,0.0532,0.0556,0.0488,0.0492,0.0592,0.0597,,0.0066,0.0631,,0.0618,,0.0539,0.0782,
M188D,0.0493,0.0524,0.0759,,0.0611,,0.0567,0.0647,,0.0561,,0.0288,,,0.0622,,0.0431,,
E189H,0.0655,0.0549,0.0615,0.0619,0.0373,0.0541,,,0.0633,,0.0757,,0.0736,,0.0453,0.104,,0.0795,
E189P,0.0359,,0.0477,0.0561,,,,,0.0738,,,,0.0758,0.0438,,0.108,,,
E189R,0.0455,,0.0638,0.0611,0.065,0.0621,0.069,,0.0524,0.0663,0.0724,,0.0317,0.0611,,0.0608,0.0734,0.0894,0.0375
E189S,0.0578,,0.06,0.0723,,,,0.0492,,0.0441,,,0.0551,0.055,,0.113,0.075,0.0735,
E189W,0.0608,0.0708,,,,0.0505,,,,,0.0721,,0.0733,0.0694,0.0637,,0.0498,0.0806,
L190E,0.0525,0.0588,0.0535,0.0632,0.067,0.0641,0.0354,0.0589,0.05,0.0615,,,0.058,,,,0.0707,,0.0507
L190Q,0.0649,0.0748,,0.0613,0.0768,,0.0541,,,,0.083,,,,0.0733,0.0823,,,
L190S,0.0551,0.0681,0.0601,,,0.04,0.0533,0.0694,0.0661,,0.0366,,0.0654,0.0616,0.0696,0.0962,,,0.0475
